# The other results are listed elsewhere or left out.
# Tests used:
# Assay in all cases: glycan array binding signal (z-score within array); higher = stronger binding
# Settings in all cases: glycan notation: IUPAC condensed, linker removed
# [1] = target: Neu5Ac(a2-6)GlcNAc(b1-4)GlcNAc(b1-4)GlcNAc
# Procedure, shortened: (§1)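 Arrays were curated from the Consortium for Functional Glycomics database, 3228 in total, and kept only where the protein sequence was available. Binding is expressed as a within-array Z-score. This score was averaged across arrays of the same protein sequence at different concentrations or buffers and across linkers, and negative values can be read as non-binding.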
# Neu5Ac(a2-8)Neu5Ac = target: Neu5Ac(a2-8)Neu5Ac
# Procedure, shortened: as §1
# [2] = target: Neu5Ac(a2-8)Neu5Ac(a2-3)Gal(b1-3)GalNAc(b1-4)[Neu5Ac(a2-3)]Gal(b1-4)Glc
# Procedure, shortened: as §1
# [3] = target: Neu5Ac(a2-8)Neu5Ac(a2-3)Gal(b1-3)GalNAc(b1-4)[Neu5Ac(a2-8)Neu5Ac(a2-3)]Gal(b1-4)Glc
# Procedure, shortened: as §1
# [4] = target: Neu5Ac(a2-8)Neu5Ac(a2-3)Gal(b1-4)Glc
# Procedure, shortened: as §1
# [5] = target: Neu5Ac(a2-8)Neu5Ac(a2-3)Gal(b1-4)GlcNAc
# Procedure, shortened: as §1
# [6] = target: Neu5Ac(a2-8)Neu5Ac(a2-3)[Gal(b1-3)GalNAc(b1-4)]Gal(b1-4)Glc
# Procedure, shortened: as §1
# [7] = target: Neu5Ac(a2-8)Neu5Ac(a2-3)[GalNAc(b1-4)]Gal(b1-4)Glc
# Procedure, shortened: as §1
# [8] = target: Neu5Ac(a2-8)Neu5Ac(a2-8)Neu5Ac
# Procedure, shortened: as §1
# [9] = target: Neu5Ac(a2-8)Neu5Ac(a2-8)Neu5Ac(a2-3)Gal(b1-4)Glc
# Procedure, shortened: as §1
# [10] = target: Neu5Ac(a2-8)Neu5Ac(a2-8)Neu5Ac(a2-3)[Gal(b1-3)GalNAc(b1-4)]Gal(b1-4)Glc
# Procedure, shortened: as §1
# [11] = target: Neu5Ac(a2-8)Neu5Ac(a2-8)Neu5Ac(a2-3)[GalNAc(b1-4)]Gal(b1-4)Glc
# Procedure, shortened: as §1
# [12] = target: Neu5Ac(a2-8)Neu5Ac(a2-8)Neu5Ac(a2-8)Neu5Ac(a2-3)[GalNAc(b1-4)]Gal(b1-4)Glc
# Procedure, shortened: as §1
# [13] = target: Neu5Ac(a2-8)Neu5Gc(a2-3)Gal(b1-4)GlcNAc
# Procedure, shortened: as §1
# [14] = target: Neu5Ac(b2-6)Gal(b1-4)GlcNAc
# Procedure, shortened: as §1
# Neu5Ac(b2-6)GalNAc = target: Neu5Ac(b2-6)GalNAc
# Procedure, shortened: as §1
# [15] = target: Neu5Ac9Ac(a2-3)Gal(b1-3)GlcNAc
# Procedure, shortened: as §1
# [16] = target: Neu5Ac9Ac(a2-3)Gal(b1-4)GlcNAc
# Procedure, shortened: as §1
# [17] = target: Neu5Ac9Ac(a2-6)Gal(b1-4)GlcNAc
# Procedure, shortened: as §1
# [18] = target: Neu5Gc(a2-3)Gal(b1-3)GlcNAc
# Procedure, shortened: as §1
# [19] = target: Neu5Gc(a2-3)Gal(b1-3)[Fuc(a1-4)]GlcNAc
# Procedure, shortened: as §1
# Neu5Gc(a2-3)Gal(b1-4)Glc = target: Neu5Gc(a2-3)Gal(b1-4)Glc
# Procedure, shortened: as §1
# [20] = target: Neu5Gc(a2-3)Gal(b1-4)GlcNAc
# Procedure, shortened: as §1
# [21] = target: Neu5Gc(a2-3)Gal(b1-4)GlcNAc(b1-3)Gal(b1-4)GlcNAc(b1-2)Man(a1-3)[Neu5Gc(a2-3)Gal(b1-4)GlcNAc(b1-3)Gal(b1-4)GlcNAc(b1-2)Man(a1-6)]Man(b1-4)GlcNAc(b1-4)GlcNAc
# Procedure, shortened: as §1
# [22] = target: Neu5Gc(a2-3)Gal(b1-4)[Fuc(a1-3)]GlcNAc
# Procedure, shortened: as §1
# [23] = target: Neu5Gc(a2-6)Gal(b1-4)GlcNAc
# Procedure, shortened: as §1
# Neu5Gc(a2-6)GalNAc = target: Neu5Gc(a2-6)GalNAc
# Procedure, shortened: as §1
# [24] = target: Neu5Gc(a2-8)Neu5Ac(a2-3)Gal(b1-4)GlcNAc
# Procedure, shortened: as §1
# [25] = target: Neu5Gc(a2-8)Neu5Gc(a2-3)Gal(b1-4)GlcNAc
# Procedure, shortened: as §1
# [26] = target: Neu5Gc(a2-8)Neu5Gc(a2-3)Gal(b1-4)GlcNAc(b1-3)Gal(b1-4)GlcNAc
# Procedure, shortened: as §1
# [27] = target: Neu5Gc(a2-8)Neu5Gc(a2-6)Gal(b1-4)GlcNAc
# Procedure, shortened: as §1
# [28] = target: Neu5Gc(b2-6)Gal(b1-4)GlcNAc
# Procedure, shortened: as §1
binder,measurement,setting,value
"CC1G-10077 (Coprinopsis cinerea), A8NDT7 (protein) MALNEGVYWIRNSRFTNKVLDLDAANVAKGTSILDFNEHGTFNENHNQLWIVERFQSRDTYLIRSVHSNLVLDLSQGLSANGTPILCWTQHGGTNQQWRIEWVKDDNKTPLYRIVSVATGTAISHNEDDSSAYTVAWSVDDGPKQLWSFDPFVTPLLYRLRVKSTSRVLDLAAASADNGTLALAWEQHTAITKRNQLWWLPYRSGAEEYTIQCLETSTVADLSGGNSGNGTPIYGWQSHGGRNQQWKFEPTSDSGDYYHIKNVEGGSVMDAYMNDSQKRVGGWSNNGGDNQKWLLDPLPSPGPGWVLIQNGGTGKFLCSTPSGDIGTADGPETVYDYSVQWRFIQREYTGVYHVVNRATGAYLRQIGTSMPSIGLAEENDDELKDWWMLETYDNSEIGLASIISRWTGNVLDHYGGVSVQALDNNTENSYRSWAIIPARDWLTSFSLVNGQGGLCLAAQYAREETRLSTTANVNDFHAQWVFRKPSGSSGYTIQNKYNNHYVGGTSARWELVVCCNKYFGIRNTSTQKYLAIEDGQVTFQDQDMTDRKQCWELCSGRATDTSGNDYDLIYMDDDLLEVMIPWVGDKQGDLKHYIEKRATKKPPKDKGGWQLPAAGLIKKPKFNDIRQLLQELIEQWEWDVVNEEREQIQTLVSIDEAEARRLLGRRPHPDIVAAYQRSRSSTLFRIDRQGYFNIAGDRYVNIQGQYGDDSYFHIALPVGVRFGREQIRRFLRDSLDRSTSVTITPTTCKPPSGGPDYNRDPDSDGDNSWIKWTIAVVGTSAIKHSEL",glycan array binding signal (z-score),[1],-0.454
same,glycan array binding signal (z-score),Neu5Ac(a2-8)Neu5Ac,-0.507
same,glycan array binding signal (z-score),[2],-0.428
same,glycan array binding signal (z-score),[3],1.02
same,glycan array binding signal (z-score),[4],-0.471
same,glycan array binding signal (z-score),[5],-0.472
same,glycan array binding signal (z-score),[6],-0.337
same,glycan array binding signal (z-score),[7],-0.233
same,glycan array binding signal (z-score),[8],-0.448
same,glycan array binding signal (z-score),[9],-0.534
same,glycan array binding signal (z-score),[10],-0.44
same,glycan array binding signal (z-score),[11],-0.29
same,glycan array binding signal (z-score),[12],-0.332
same,glycan array binding signal (z-score),[13],-0.505
same,glycan array binding signal (z-score),[14],-0.421
same,glycan array binding signal (z-score),Neu5Ac(b2-6)GalNAc,-0.454
same,glycan array binding signal (z-score),[15],-0.477
same,glycan array binding signal (z-score),[16],-0.398
same,glycan array binding signal (z-score),[17],-0.434
same,glycan array binding signal (z-score),[18],-0.493
same,glycan array binding signal (z-score),[19],-0.458
same,glycan array binding signal (z-score),Neu5Gc(a2-3)Gal(b1-4)Glc,-0.46
same,glycan array binding signal (z-score),[20],-0.49
same,glycan array binding signal (z-score),[21],-0.432
same,glycan array binding signal (z-score),[22],-0.475
same,glycan array binding signal (z-score),[23],-0.475
same,glycan array binding signal (z-score),Neu5Gc(a2-6)GalNAc,-0.485
same,glycan array binding signal (z-score),[24],-0.458
same,glycan array binding signal (z-score),[25],-0.434
same,glycan array binding signal (z-score),[26],-0.473
same,glycan array binding signal (z-score),[27],-0.424
same,glycan array binding signal (z-score),[28],-0.451
